The list shows a part of the results. The full chains were built here from the parent and the listed change. Values near 0.05 are background.
B1: TEV protease; numbered along this chain (parent)
chain: MGESLFKGPRDYNPISSSICHLTNESDGHTTSLYGIGFGPFIITNKHLFRRNNGTLVVQSLHGVFKVKDTTTLQQHLVDGRDMIIIRMPKDFPPFPQKLKFREPQREERICLVTTNFQTKSMSSMVSDTSCTFPSGDGIFWKHWIQTKDGQCGSPLVSTRDGFIVGIHSASNFTNTNNYFTSVPKNFMELLTNQEAQQWVSGWRLNADSVLWGGHKVFMVKPEEPFQPVKEATQL

Variants of: B1
Assay: raw area under fraction-flipped curve 0-4 h after induction (AUC4h, not background-subtracted), DNA-recorder readout of cleavage of the substrate (dimensionless); higher = more cleavage of the substrate by the protease variant
Conditions: temperature: 34 °C; time window: 0-4 h after rhamnose induction
Protocol: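 In vivo DNA recorder in E. coli TOP10(DE3) ΔrhaA at 34 °C. Each TEVp single-site mutant (parent TEVp 0) is paired with a single-site variant of the 7-mer TEVs (canonical ENLYFQ|S). The substrate sits between flexible linkers in a Bxb1-sfGFP-TEVs-SsrA fusion, so cleavage stabilises Bxb1 and speeds flipping of a recombination array, read by NGS. The value is the raw area under the fraction-flipped curve over 0-4 h after rhamnose induction (AUC4h), with ≥20 reads per time point. It is not background-subtracted; inactive controls average about 0.047.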
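Further: Bxb1 expression induced with 0.2% (w/v) L-rhamnose at OD600 near 0.5, cultures sampled hourly, flipped fraction per protease–substrate barcode pair counted by paired-end Illumina sequencing.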

Variant | area with substrate ENLYFQC | area with substrate ENLYFQF | area with substrate ENLYFQG | area with substrate ENLYFQH | area with substrate ENLYFQI | area with substrate ENLYFQK | area with substrate ENLYFQL | area with substrate ENLYFQM | area with substrate ENLYFQN | area with substrate ENLYFQR | area with substrate ENLYFQS | area with substrate ENLYFQT | area with substrate ENLYFQV | area with substrate ENLYFQW | area with substrate ENLYFQY | area with substrate ENLYFQD | area with substrate ENLYFQP | area with substrate ENLYFQQ | area with substrate ENLYFQE
G150N | 0.0634 | 0.0516 | 0.0702 | 0.0496 | 0.0567 | 0.0523 | 0.0531 | 0.0555 | 0.0342 | 0.0503 | 0.0611 | 0.0599 | 0.0567 | 0.0602 | 0.0604 |  |  |  | 
C152R | 0.0451 |  | 0.0709 | 0.0384 |  |  | 0.0662 | 0.0593 | 0.0667 | 0.0366 | 0.0581 | 0.0548 | 0.0696 | 0.0726 | 0.0499 | 0.0664 | 0.0531 | 0.0663 | 
C152T | 0.0451 | 0.051 |  | 0.0615 | 0.0593 | 0.0563 |  | 0.0479 | 0.0489 | 0.056 | 0.0618 | 0.0549 | 0.066 | 0.0585 | 0.06 |  |  |  | 
L156N | 0.0565 | 0.0361 | 0.058 | 0.0464 | 0.0431 | 0.0497 | 0.0491 | 0.0461 | 0.0528 | 0.0323 | 0.0545 | 0.0534 |  | 0.0569 | 0.0557 | 0.0553 | 0.0551 | 0.0457 | 
T159C | 0.16 | 0.0907 | 0.105 |  |  |  |  |  | 0.0699 |  | 0.11 |  | 0.0608 | 0.0745 |  |  |  |  | 
R160C | 0.125 |  |  | 0.0648 | 0.0606 | 0.0521 | 0.0568 | 0.106 | 0.0854 |  | 0.102 | 0.0718 | 0.0639 | 0.058 | 0.0731 | 0.0721 |  | 0.0553 | 
R160M | 0.116 |  |  |  |  |  | 0.0761 |  |  |  | 0.102 |  |  |  |  |  |  |  | 
R160T | 0.15 |  |  | 0.0834 |  | 0.0603 | 0.0616 | 0.107 | 0.0731 |  | 0.116 | 0.0736 |  |  |  |  | 0.057 |  | 
D161Q | 0.0842 | 0.0725 | 0.0523 |  | 0.0515 | 0.0503 | 0.0426 |  |  | 0.0589 | 0.0621 | 0.0604 | 0.0436 | 0.0417 |  | 0.0563 | 0.0491 |  | 
F163H | 0.124 | 0.0701 |  |  | 0.106 |  |  |  | 0.0846 |  | 0.112 | 0.0691 | 0.053 |  |  | 0.0899 |  |  | 
V165N | 0.113 |  | 0.062 | 0.0696 | 0.0561 | 0.0434 |  | 0.0342 |  | 0.0517 | 0.0479 |  |  | 0.0431 |  | 0.0632 | 0.0528 |  | 
G166C | 0.0391 |  | 0.0955 | 0.0497 | 0.0561 |  |  | 0.0377 | 0.0507 | 0.0358 | 0.0487 | 0.0307 | 0.0485 |  | 0.0476 | 0.0495 | 0.0554 |  | 
I167D | 0.0474 |  | 0.0576 |  |  | 0.0421 | 0.0435 | 0.0601 |  | 0.0535 | 0.05 | 0.0464 |  | 0.0535 |  | 0.0296 | 0.107 |  | 
H168P | 0.0486 |  | 0.0682 |  | 0.0583 |  | 0.0369 | 0.0433 |  | 0.0509 | 0.0548 | 0.0709 |  | 0.0487 |  | 0.0685 |  |  | 
H168R | 0.0433 | 0.0476 | 0.042 |  |  | 0.0605 | 0.0489 | 0.07 |  |  | 0.0601 | 0.0606 | 0.0596 | 0.0683 | 0.0487 |  |  | 0.0624 | 0.0576
H168S | 0.0569 |  | 0.0934 |  | 0.0567 |  | 0.0653 |  | 0.0553 | 0.07 | 0.0616 | 0.021 |  |  |  |  |  |  | 
T176G | 0.0798 | 0.0507 |  |  | 0.0616 | 0.0672 | 0.0725 | 0.0599 | 0.109 |  | 0.0713 | 0.0491 | 0.069 |  |  | 0.0594 | 0.0518 |  | 
N177Y | 0.085 |  |  | 0.0786 | 0.0497 | 0.055 |  | 0.0575 | 0.0536 | 0.0637 | 0.0752 | 0.0599 |  |  |  |  |  |  | 
P184Y | 0.0786 |  |  | 0.079 |  |  | 0.0546 | 0.0451 | 0.065 | 0.0466 | 0.0629 | 0.0509 |  |  | 0.0211 |  |  |  | 
N186A | 0.115 |  |  |  |  |  |  |  |  |  | 0.101 |  |  | 0.0854 |  |  |  |  | 
N186Y | 0.106 |  | 0.0659 |  |  | 0.0679 |  | 0.0864 |  |  | 0.0997 | 0.0734 | 0.0607 |  |  | 0.075 |  | 0.0333 | 
E189K | 0.118 |  |  | 0.0722 |  | 0.0598 |  |  | 0.0712 |  | 0.0901 |  |  | 0.06 |  | 0.0754 |  |  | 
L191C | 0.0949 |  |  | 0.0697 | 0.0644 |  | 0.0649 | 0.0931 | 0.0701 | 0.0597 | 0.0854 | 0.046 | 0.0499 |  |  | 0.0658 | 0.0511 |  | 0.0674
T192N | 0.106 | 0.0826 |  | 0.0813 | 0.0637 | 0.0703 | 0.0533 |  | 0.0798 | 0.0837 | 0.105 | 0.0622 | 0.0636 |  | 0.0911 |  | 0.0659 | 0.0811 | 
Q198F | 0.0949 |  | 0.0809 | 0.0649 | 0.0566 | 0.0614 | 0.063 | 0.0872 | 0.068 | 0.064 | 0.091 | 0.0615 | 0.0657 | 0.0618 | 0.0669 | 0.0814 | 0.0547 | 0.0744 | 
W199G | 0.0564 | 0.0697 | 0.0611 |  |  |  | 0.055 | 0.0583 | 0.0533 | 0.0703 | 0.0621 | 0.0349 | 0.0572 | 0.0528 |  | 0.0704 | 0.0536 |  | 0.0662
V200C | 0.0819 |  | 0.133 | 0.0879 | 0.0786 | 0.057 | 0.0571 |  | 0.0847 | 0.0585 | 0.0839 | 0.0592 |  | 0.0593 | 0.0749 | 0.0625 | 0.0799 | 0.0687 | 
V200Y | 0.0781 |  |  | 0.0593 | 0.0643 |  | 0.0507 | 0.0605 |  | 0.042 | 0.0661 | 0.0629 |  | 0.0619 |  | 0.0698 | 0.085 |  | 
S201D | 0.0842 |  | 0.0646 | 0.0642 | 0.0526 | 0.0509 | 0.0675 | 0.0586 | 0.0761 | 0.0547 | 0.0728 | 0.0712 | 0.0496 |  | 0.0608 | 0.0709 | 0.0601 |  | 
G202C | 0.0648 |  | 0.0599 | 0.0656 |  |  |  | 0.0463 |  | 0.055 | 0.0669 | 0.0553 |  | 0.06 |  |  |  | 0.0435 | 

— the supplement of paper PMC12217912
